For the experiment, the target named is T1, Human NOP Rluc-tagged fusion protein (N/OFQ peptide receptor fused to Renilla luciferase) (human).
T1 construct: N/OFQ peptide (NOP) receptor, human; Two cell lines: one co-expressing Gβ1-RGFP, one co-expressing β-arrestin 2-RGFP; also called RLuc/NOP receptor; NOP receptor; source: HEK293, permanently expressed by retroviral vector (pQIXN); in whole cells or in enriched plasma membranes; not shown: RLuc (Renilla luciferase), C-terminal, kept
As to the kind of experiment: FRET or BRET; BRET between NOP-RLuc and β-arrestin 2-RGFP in whole co-expressing HEK293 cells (100,000 cells/well), DPBS with 0.5 mM MgCl2 and 0.9 mM CaCl2, coelenterazine 5 μM, agonist added 5 min before reading, room temperature; also after PTX 10 ng 20 h (negligible effect). Conditions: partners not purified.

B1: Human β-arrestin 2 tethered to the C terminus of RGFP (natural protein)
chain: not shown
notes: β-arrestin 2, human; start codon removed, N terminus tethered to the C terminus of RGFP through a 13-mer linker; also called β-arrestin 2-RGFP; β-arrestin 2/RGFP; source: HEK293, permanently expressed by retroviral vector (pQIXH); in whole cells; not shown: RGFP (Renilla green fluorescent protein), N-terminal, kept
Take B1: the “stimulated BRET ratio over the baseline at the maximal effect of N/OFQ” value was found to be 0.07 BRET ratio units.

The values above are taken from paper PMC4527783 (PLoS ONE, 2015).
